# Reference: the supplement of paper PMC12645437, “Orthogonal IMiD-Degron Pairs Induce Selective Protein Degradation in Cells” (ACS Chemical Biology, 2025)
# The other results are listed elsewhere or left out.
# Molecular target: no compound (DMSO)
# Assay: log2 fold change of degron read counts, EGFP-low vs EGFP+ sorted cells; higher = lower degron-EGFP level without compound (poor expression or instability)
# Conditions: compound: DMSO control; 18 h
# 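Also: jurkat cells carrying a lentiviral library of mutant zinc finger degrons fused to EGFP plus mCherry, mCherry+ cells FACS sorted, degron abundance counted by next-generation sequencing.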
row,Sequence,log2 fold change of degron read counts
1,FFCEQCGAIFTQKGNLLRHIKL,-1.25
2,LACEICGFECTQKGNLLRHIKL,-1.1
3,LSCPICGFYCTQKGNLLRHIKL,1.52
4,FRCEVCGANFTQKGNLLRHIKL,-1.68
5,FYCNQCGAYFTQKGNLLRHIKL,0.75
6,FRCEQCGAYFTQKGNLLRHIKL,-1.28
7,FLCPICGHEFTQKGNLLRHIKL,-1.37
8,FDCPQCGASFTQKGNLLRHIKL,-2.2
9,FICDQCGAFFTQKGNLLRHIKL,-0.871
10,FHCNQCGRHFTQKGNLLRHIKL,-0.307
11,LFCPICGFLCTQKGNLLRHIKL,2.14
12,FMCNICGATFTQKGNLLRHIKL,-0.379
13,FGCPICGRWFTQKGNLLRHIKL,0.335
14,LFCEICGFQCTQKGNLLRHIKL,0.0789
